Assay results: the supplement of paper PMC10441789
The other results are listed elsewhere or left out. Antibody binding of pooled human sera (four to six donors per pool; dilution not stated) to peptides of the Trypanosoma cruzi antigen TSSA on microarrays. Quantile-normalised fluorescence in arbitrary units, mean of duplicate arrays; higher = more binding. No active / inactive call. The uninfected pools are read here as the healthy donors of the same country. The strongest signals lie near the top of the scale (about 60,000).

System: pooled sera of chronic Chagas disease patients, Argentina
Test: antibody binding signal (normalised fluorescence) (arbitrary fluorescence units); higher = stronger serum antibody binding to peptide
Protocol: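 Microarray of 15-residue peptides over residues 30-55 of Trypanosoma cruzi TSSAII, each with 1 to 10 substitutions at naturally variable positions, probed with one serum pool per country.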

| Sequence | antibody binding signal |
| --- | --- |
| GKDKKTAAGGTPSQS | 295 |
| DNKTAAGEAPSPSGA | 228 |
| PSGTDKKAATGGAPS | 2890 |
| KKPAAGETPSQPGAS | 235 |
| GTENKTAAGGAPSPP | 34800 |
| SGTENKTATGETPSQ | 18000 |
| STPPSGKEKKAATGG | 13700 |
| PSGKDKKAATGETPS | 2590 |
| KENKAATGGAPSQPG | 315 |
| SGTDKKAAAGGAPSQ | 302 |
| TPPSGKDNKAAAGET | 624 |
| SGTDKKAAAGETPSQ | 319 |
| PPSGTDNKPAAGETP | 34800 |
| TEKKPATGGTPSPPG | 1680 |
| TDNKTAAGEAPSQSG | 341 |
| PSGTDNKTAAGETPS | 12300 |
| TISTPPSGTEKKTAA | 37000 |
| GTDNKTAAGGTPSQS | 1490 |
| GTEKKAATGGAPSPS | 2790 |
| EKKAATGGTPSQPGA | 960 |

| Sequence | antibody binding signal |
| --- | --- |
| GKDNKAAAGGAPSPP | 338 |
| SGTEKKAAAGGAPSQ | 1010 |
| PPSGKEKKAATGETP | 3550 |
| KPATGGAPSPPGASS | 869 |
| DNKAAAGEAPSQPGA | 7220 |
| SGKENKTAAGGAPSQ | 3140 |
| TDKKTAAGEAPSPPG | 410 |
| KDNKPAAGGAPSPPG | 177 |
| TDNKPAAGGTPSPSG | 1420 |
| SGKENKTATGGTPSP | 3210 |
| TISTPPSGKEKKAAA | 12100 |
| GKEKKAATGGAPSQS | 3090 |
| GTENKAAAGETPSQS | 39000 |
| SGKDKKTAAGEAPSQ | 623 |
| SGKENKPAAGGAPSP | 3740 |
| TISTPPSGTDKKTAT | 30700 |
| TISTPPSGKEKKPAA | 20400 |
| TDNKTAAGGTPSQSG | 1440 |
| DNKPATGGAPSQSGA | 776 |
| PSGTDNKAAAGGTPS | 15200 |
